Data taken from paper PMC4336329 (PLoS ONE, 2015).
In all, about 310,000 compounds went through this assay and about 14,000 (4.5%) showed an effect of 50% or more. Effects have a minus sign here. Some of the results follow.

target: human ether-à-go-go-related gene (hERG) potassium channel (human, UniProt Q12809); experiment: primary screen, population patch clamp on CHO cells stably expressing hERG
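Note: peak tail current of the secondary pulse compared with the same well before compound.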

human ether-à-go-go-related gene (hERG) potassium channel, sequence (Q12809 whole entry, looked up): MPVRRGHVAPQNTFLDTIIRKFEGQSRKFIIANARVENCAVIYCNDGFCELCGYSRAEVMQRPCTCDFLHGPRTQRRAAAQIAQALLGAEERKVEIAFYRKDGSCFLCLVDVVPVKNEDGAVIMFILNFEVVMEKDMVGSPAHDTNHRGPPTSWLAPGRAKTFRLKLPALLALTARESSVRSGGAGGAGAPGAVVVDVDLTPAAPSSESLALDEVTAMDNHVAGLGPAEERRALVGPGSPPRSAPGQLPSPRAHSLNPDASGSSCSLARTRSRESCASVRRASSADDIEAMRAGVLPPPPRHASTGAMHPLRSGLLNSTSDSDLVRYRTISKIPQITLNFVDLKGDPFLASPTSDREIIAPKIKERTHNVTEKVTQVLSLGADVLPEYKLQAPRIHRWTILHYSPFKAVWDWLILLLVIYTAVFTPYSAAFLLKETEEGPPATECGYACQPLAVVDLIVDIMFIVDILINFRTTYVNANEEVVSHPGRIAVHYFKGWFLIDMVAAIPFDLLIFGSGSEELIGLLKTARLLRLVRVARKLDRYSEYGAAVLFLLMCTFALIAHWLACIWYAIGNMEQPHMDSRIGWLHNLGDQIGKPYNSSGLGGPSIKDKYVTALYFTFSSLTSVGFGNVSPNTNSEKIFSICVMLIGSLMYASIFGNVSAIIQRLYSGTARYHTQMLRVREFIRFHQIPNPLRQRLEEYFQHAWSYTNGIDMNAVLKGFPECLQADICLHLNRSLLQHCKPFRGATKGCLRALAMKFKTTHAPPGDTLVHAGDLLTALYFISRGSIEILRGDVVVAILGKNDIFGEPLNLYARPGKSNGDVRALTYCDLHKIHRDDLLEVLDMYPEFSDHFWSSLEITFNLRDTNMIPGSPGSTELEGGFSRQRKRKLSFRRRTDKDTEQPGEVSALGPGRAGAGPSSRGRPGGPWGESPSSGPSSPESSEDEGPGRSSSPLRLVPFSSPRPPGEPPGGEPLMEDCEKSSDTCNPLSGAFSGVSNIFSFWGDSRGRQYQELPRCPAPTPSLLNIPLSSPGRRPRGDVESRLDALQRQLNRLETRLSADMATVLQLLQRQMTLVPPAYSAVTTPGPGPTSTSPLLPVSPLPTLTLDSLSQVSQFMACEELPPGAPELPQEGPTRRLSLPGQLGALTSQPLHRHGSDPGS

| SMILES | hERG current change (%, negative = inhibition) at 10uM |
| --- | --- |
| Cc1ccc(CN2CCN(CC(=O)NC(C)c3ccc4c(c3)OCCO4)C2=O)cc1 (stereo not shown) | -9.8% |
| Cc1cccc(N2CC(O)(c3cccs3)[N+]3=C2CCCC3)c1.[Br-] (stereo not shown) | -12.3% |
| N=c1c(C(=O)NCc2ccco2)cc2c(=O)n3ccccc3nc2n1C1CCCC1 | -77% |
| CN1CCN(c2ccc(C(N)=O)cc2[N+](=O)[O-])CC1 | 7.57% |
| O=C(NCc1ccc(Cl)cc1)c1ccc(NC(=O)C2CCCO2)cc1 (stereo not shown) | 13.2% |
| COCCN1Cc2cccc(C(=O)NCCCN3CCCC3=O)c2C1=O | 7.02% |
| Cc1cccc(N2CCN(C(=O)c3ccc4c(c3)c(C)c(C)n4C)CC2C)c1 (stereo not shown) | 0.358% |
| CCOC(=O)C1CCCN(C(=O)c2cc(Nc3ccc(OC)c(OC)c3)nc3ccccc23)C1 (stereo not shown) | -14.9% |
| CNC(=S)Nc1ccc([N+](=O)[O-])cc1 | 11.9% |
| CN(CC(=O)Nc1ccc(Cl)c(C(F)(F)F)c1)Cc1cc(=O)n2ccsc2n1 | -82.8% |
| Cc1ccc(N2C(SCC(=O)O)=NC(=Nc3cccc(C)c3)C23CCCC3)cc1.I | 4.25% |
| CC(C)NS(=O)(=O)c1ccc(OCC(=O)N2CCN(C)CC2)cc1 | 12.3% |
| CC1CCc2c(sc(NC(=O)COC(=O)c3ccccc3NCc3ccco3)c2C#N)C1 (stereo not shown) | 7.34% |
| COc1ccc(C)cc1S(=O)(=O)N1CCN(Cc2ccccc2)CC1 | -22.1% |
| COc1cc(C=O)c(Br)cc1OC1CCCC1 | 6.63% |
| CCOC(=O)C1(c2ccccc2)CCN(CCC(=O)Nc2ccccc2OC)CC1 | -45.7% |
| COc1cc(OC)cc(C(=O)NNC(=O)CCOc2ccccc2OC)c1 | 7.89% |
| COc1ccccc1C(=O)Nc1ccc(OCc2nnc3c4ccccc4c(C)nn23)cc1 | -10% |
| Cc1ccc(NC(=O)NC2=N/C(=C(/C#N)C(=O)N3CCCC3)c3ccccc32)cc1 | -22.7% |
| CN(CC(=O)Nc1nc2ccccc2s1)S(=O)(=O)c1ccc(Cl)cc1 | -6.79% |
| N/C(CS(=O)(=O)c1ccccc1)=N\OC(=O)c1ccc(F)cc1 | -0.547% |
| COC(=O)c1cccc(C(=O)N2CCCC(CCC(=O)N(C)CCc3ccccn3)C2)c1 (stereo not shown) | -10.3% |
| CC(=O)NC(Cc1ccccc1C)C(=O)NC1CCN(c2ncccc2[N+](=O)[O-])CC1 (stereo not shown) | -1.73% |
| Cc1ccc(SCCNC(=O)c2ccc(CN3CCOCC3)cc2)cc1 | -32.6% |
| COc1cccc(NC(=O)C(c2ccccc2)N2CCCC2)c1 (stereo not shown) | -0.539% |
| CCN(CC)C(=O)c1sc(NC(=O)c2ccc3c(c2)OCO3)c(C#N)c1C | 4.84% |
| CC1(c2ccc(Cl)cc2)NC(=O)N(CC(=O)NCc2ccc(F)cc2)C1=O (stereo not shown) | -20.2% |
| Cc1ccc(NC(=O)CCCN2C(=S)NC(C)(C)CC2C)cc1 (stereo not shown) | 15.1% |

| SMILES | hERG current change (%, negative = inhibition) at 10uM |
| --- | --- |
| O=c1c(Cl)c(N2CCC3(CC2)OCCO3)cnn1C12CC3CC(CC(C3)C1)C2 | 10.9% |
| O=C(NC1CCCC1)C(c1cccnc1)N(C(=O)c1csnn1)c1ccccc1Cl (stereo not shown) | -10.8% |
| Nc1sccc1C(=O)c1ccccc1 | 4.8% |
| O=C(CCCCC(=O)Nc1ccccc1)Nc1ccccc1 | 22.9% |
| COc1ccc(-n2c(=O)c3c4c(sc3n3c(=S)[nH]nc23)COC(C(C)C)C4)cc1 (stereo not shown) | 24.1% |
| CCn1c(COc2cccc(OC)c2)nnc1SCC(=O)N1CCOCC1 | -15% |
| CCOC(=O)c1sc(NC(=O)/C=C/c2ccccc2)nc1C | 12.8% |
| Cc1ccc(OCC(=O)N(C)CC(=O)Nc2ccc(F)cc2)c([N+](=O)[O-])n1 | -24.2% |
| O=C1CC(c2ccccc2F)c2cc3c(cc2N1)CCC3 (stereo not shown) | 5.73% |
| CCc1cccc(C)c1NS(=O)(=O)c1c(C)nc2sccn2c1=O | -12.4% |
| Cc1ccc(-c2ccc(=O)n(CC(=O)N3CCC4(CC3)OCCO4)n2)cc1 | 5.07% |
| CCN1CCN(C(=O)c2ccccc2Nc2ccc(SC(F)F)cc2)CC1.Cl | -45.8% |
| Cc1cc(SCC(=O)Nc2ccccc2)n2ncc(-c3ccccc3)c2n1 | 14.4% |
| CC(O)[C@H](NC(=O)C1CCN(C(=O)[C@H](Cc2ccccc2)NC(=O)OC(C)(C)C)CC1)C(=O)O (stereo partly shown) | 20.6% |
| O=C1CN(C(=O)COc2cccc(F)c2)c2ccccc2N1 | -16.9% |
| COc1cccc(NC(=O)C2C(c3ccccc3)C2(Cl)Cl)c1 (stereo not shown) | 10.7% |
| CC(=O)N=c1c(C#N)cc2c(=O)n3ccccc3nc2n1CCCOC(C)C | -13.6% |
| CCc1ccccc1NC(=O)CSC1=C(C#N)C(c2ccc3c(c2)OCO3)C2=C(CCCC2=O)N1 (stereo not shown) | 4.01% |
| COc1cccc(NC(=S)N(CCCN2CCCC2)Cc2ccco2)c1 | -46.3% |
| CCC(C(=O)Nc1ccccc1C(=O)N1CCCC1)N1C(=O)c2ccccc2C1=O (stereo not shown) | -5.08% |
| Cl.OCCNc1nc(Nc2cccc(O)c2)nc2ccccc12 | -23.8% |
| CCC/C(=N\NC(=O)C1CCCC1)c1ccccc1 | 6.6% |
| Cc1ccc(NC(=O)C2CCCN(S(=O)(=O)c3ccc4[nH]c(=O)ccc4c3)C2)c(C)c1 (stereo not shown) | 3.65% |
| Cc1nn(-c2ccccc2)c2c1C(O)CC(C)(C)C2 (stereo not shown) | 17.8% |
| Cc1cccc(NC(=O)CCC(=O)N2CCOCC2)n1 | 5.77% |
| COc1ccc(-n2nnnc2SCC(=O)NCCc2ccccc2)cc1OC | 4.01% |
| Cl.O=C1[C@H]2CCCC[C@H]2C(=O)N1CCCCN1CCN(c2nsc3ccccc23)CC1 | -74.3% |
